Part of at least one peptide drawing is inferred or uncertain, most often the ends. Peptide text beside a SMILES is read from it. * marks the point of attachment. Biotin = O=C1N[C@H]2[C@H](CS[C@H]2CCCCC(=O)*)N1
Target: T1, insulin mini-receptor IR485 (Homo sapiens, UniProt P06213, I448T/Q492K/Y171H)
T1 construct: made in house; host or cells: Lec8 mutant CHO cells
Experiment: ITC titration of N-terminally biotinylated mutant αCT peptides 698-719 against insulin mini-receptor IR485
Type: binding
Details: about 25° C., IR485 about 10 μM, peptide about 60 μM, ± SEM

T1 sequence (P06213 with tags, fused parts or gaps Y171H/I448T/Q492K): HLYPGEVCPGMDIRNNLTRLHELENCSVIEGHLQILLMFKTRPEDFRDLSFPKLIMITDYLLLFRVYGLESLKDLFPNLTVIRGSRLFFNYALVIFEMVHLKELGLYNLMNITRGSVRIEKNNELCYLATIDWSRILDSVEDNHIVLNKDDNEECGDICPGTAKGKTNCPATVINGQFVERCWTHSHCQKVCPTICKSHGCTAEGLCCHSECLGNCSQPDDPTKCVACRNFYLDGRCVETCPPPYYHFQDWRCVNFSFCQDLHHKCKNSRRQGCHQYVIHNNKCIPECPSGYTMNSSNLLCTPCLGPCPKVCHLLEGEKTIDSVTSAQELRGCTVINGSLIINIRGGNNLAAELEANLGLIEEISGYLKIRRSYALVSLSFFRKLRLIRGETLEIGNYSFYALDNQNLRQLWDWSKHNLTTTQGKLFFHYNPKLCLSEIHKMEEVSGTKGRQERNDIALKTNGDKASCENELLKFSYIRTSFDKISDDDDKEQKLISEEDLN

CC(C)C[C@H](NC(=O)[C@H](Cc1ccc(O)cc1)NC(=O)[C@H](CC(=O)O)NC(=O)[C@H](CCC(=O)O)NC(=O)[C@H](Cc1ccccc1)NC(=O)[C@@H](NC(=O)[C@H](CCCCN)NC(=O)[C@H](Cc1ccc(O)cc1)NC(=O)[C@H](Cc1ccccc1)NC(=O)[C@H](CO)NC(=O)[C@H](CO)NC(=O)[C@H](CCC(=O)O)NC(=O)CCCC[C@@H]1SC[C@@H]2NC(=O)N[C@@H]21)[C@@H](C)O)C(=O)N[C@@H](Cc1c[nH]cn1)C(=O)N[C@@H](CC(N)=O)C(=O)N[C@H](C(=O)N[C@H](C(=O)N[C@@H](Cc1ccccc1)C(=O)N[C@H](C(=O)N1CCC[C@H]1C(=O)N[C@@H](CCCNC(=N)N)C(=O)N1CCC[C@H]1C(=O)N[C@@H](CO)C(=O)O)C(C)C)C(C)C)C(C)C [R702Y] (Biotin-ESSFYKTFEDYLHNVVFVPRPS-OH; C-terminus assumed)
TΔS^0: -12 ± 2 kJ/mol | ΔG^0: -37.67 ± 0.03 kJ/mol | ΔH^0: -50 ± 3 kJ/mol

CC(C)C[C@H](NC(=O)[C@H](Cc1ccc(O)cc1)NC(=O)[C@H](CC(=O)O)NC(=O)[C@H](CCC(=O)O)NC(=O)[C@H](Cc1ccccc1)NC(=O)[C@@H](NC(=O)[C@H](CCCCN)NC(=O)[C@H](Cc1c[nH]c2ccccc12)NC(=O)[C@H](Cc1ccccc1)NC(=O)[C@H](CO)NC(=O)[C@H](CO)NC(=O)[C@H](CCC(=O)O)NC(=O)CCCC[C@@H]1SC[C@@H]2NC(=O)N[C@@H]21)[C@@H](C)O)C(=O)N[C@@H](Cc1c[nH]cn1)C(=O)N[C@@H](CC(N)=O)C(=O)N[C@H](C(=O)N[C@H](C(=O)N[C@@H](Cc1ccccc1)C(=O)N[C@H](C(=O)N1CCC[C@H]1C(=O)N[C@@H](CCCNC(=N)N)C(=O)N1CCC[C@H]1C(=O)N[C@@H](CO)C(=O)O)C(C)C)C(C)C)C(C)C [R702W] (Biotin-ESSFWKTFEDYLHNVVFVPRPS-OH; C-terminus assumed)
TΔS^0: -3 ± 5 kJ/mol | ΔG^0: -37.2 ± 0.3 kJ/mol | ΔH^0: -35 ± 5 kJ/mol

CC(C)C[C@H](NC(=O)[C@H](Cc1ccc(O)cc1)NC(=O)[C@H](CC(=O)O)NC(=O)[C@H](CCC(=O)O)NC(=O)[C@H](Cc1ccccc1)NC(=O)[C@H](Cc1c[nH]c2ccccc12)NC(=O)[C@H](CCCCN)NC(=O)[C@H](CCCNC(=N)N)NC(=O)[C@H](Cc1ccccc1)NC(=O)[C@H](CO)NC(=O)[C@H](CO)NC(=O)[C@H](CCC(=O)O)NC(=O)CCCC[C@@H]1SC[C@@H]2NC(=O)N[C@@H]21)C(=O)N[C@@H](Cc1c[nH]cn1)C(=O)N[C@@H](CC(N)=O)C(=O)N[C@H](C(=O)N[C@H](C(=O)N[C@@H](Cc1ccccc1)C(=O)N[C@H](C(=O)N1CCC[C@H]1C(=O)N[C@@H](CCCNC(=N)N)C(=O)N1CCC[C@H]1C(=O)N[C@@H](CO)C(=O)O)C(C)C)C(C)C)C(C)C [T704W] (Biotin-ESSFRKWFEDYLHNVVFVPRPS-OH; C-terminus assumed)
TΔS^0: 11 ± 2 kJ/mol | ΔG^0: -38.2 ± 0.2 kJ/mol | ΔH^0: -26 ± 2 kJ/mol

CC(C)C[C@H](NC(=O)[C@H](Cc1ccc(O)cc1)NC(=O)[C@H](CC(=O)O)NC(=O)[C@H](CCC(=O)O)NC(=O)[C@H](Cc1ccccc1)NC(=O)[C@H](Cc1c[nH]c2ccccc12)NC(=O)[C@H](CCCCN)NC(=O)[C@H](Cc1ccc(O)cc1)NC(=O)[C@H](Cc1ccccc1)NC(=O)[C@H](CO)NC(=O)[C@H](CO)NC(=O)[C@H](CCC(=O)O)NC(=O)CCCC[C@@H]1SC[C@@H]2NC(=O)N[C@@H]21)C(=O)N[C@@H](Cc1c[nH]cn1)C(=O)N[C@@H](CC(N)=O)C(=O)N[C@H](C(=O)N[C@H](C(=O)N[C@@H](Cc1ccccc1)C(=O)N[C@H](C(=O)N1CCC[C@H]1C(=O)N[C@@H](CCCNC(=N)N)C(=O)N1CCC[C@H]1C(=O)N[C@@H](CO)C(=O)O)C(C)C)C(C)C)C(C)C [R702Y/T704W] (Biotin-ESSFYKWFEDYLHNVVFVPRPS-OH; C-terminus assumed)
TΔS^0: -5 ± 2 kJ/mol | ΔG^0: -44.2 ± 0.4 kJ/mol | ΔH^0: -49 ± 2 kJ/mol

CC(C)C[C@H](NC(=O)[C@H](Cc1ccc(O)cc1)NC(=O)[C@H](CC(=O)O)NC(=O)[C@H](CCC(=O)O)NC(=O)[C@H](Cc1ccccc1)NC(=O)[C@H](Cc1ccc(O)cc1)NC(=O)[C@H](CCCCN)NC(=O)[C@H](CCCNC(=N)N)NC(=O)[C@H](Cc1ccccc1)NC(=O)[C@H](CO)NC(=O)[C@H](CO)NC(=O)[C@H](CCC(=O)O)NC(=O)CCCC[C@@H]1SC[C@@H]2NC(=O)N[C@@H]21)C(=O)N[C@@H](Cc1c[nH]cn1)C(=O)N[C@@H](CC(N)=O)C(=O)N[C@H](C(=O)N[C@H](C(=O)N[C@@H](Cc1ccccc1)C(=O)N[C@H](C(=O)N1CCC[C@H]1C(=O)N[C@@H](CCCNC(=N)N)C(=O)N1CCC[C@H]1C(=O)N[C@@H](CO)C(=O)O)C(C)C)C(C)C)C(C)C [T704Y] (Biotin-ESSFRKYFEDYLHNVVFVPRPS-OH; C-terminus assumed)
TΔS^0: -11 ± 9 kJ/mol | ΔG^0: -35 ± 0.7 kJ/mol | ΔH^0: -46 ± 9 kJ/mol

CC(C)C[C@H](NC(=O)[C@H](Cc1ccc(O)cc1)NC(=O)[C@H](CC(=O)O)NC(=O)[C@H](CCC(=O)O)NC(=O)[C@H](Cc1ccccc1)NC(=O)[C@@H](NC(=O)[C@H](CCCCN)NC(=O)[C@H](CCCNC(=N)N)NC(=O)[C@H](Cc1ccccc1)NC(=O)[C@H](CO)NC(=O)[C@H](CO)NC(=O)[C@H](CCC(=O)O)NC(=O)CCCC[C@@H]1SC[C@@H]2NC(=O)N[C@@H]21)[C@@H](C)O)C(=O)N[C@@H](Cc1c[nH]cn1)C(=O)N[C@@H](CC(N)=O)C(=O)N[C@H](C(=O)N[C@H](C(=O)N[C@@H](Cc1ccccc1)C(=O)N[C@H](C(=O)N1CCC[C@H]1C(=O)N[C@@H](CCCNC(=N)N)C(=O)N1CCC[C@H]1C(=O)N[C@@H](CO)C(=O)O)C(C)C)C(C)C)C(C)C [wt] (Biotin-ESSFRKTFEDYLHNVVFVPRPS-OH; C-terminus assumed)
TΔS^0: -14 ± 1 kJ/mol | ΔG^0: -33.5 ± 0.4 kJ/mol | ΔH^0: -48 ± 1 kJ/mol
